Some test systems named below: A549 NSCLC; DU-145 prostate; RPMI-8226 leukemia; RXF 393 renal; SK-MEL-5 melanoma; MDA-MB-231 breast; K-562 leukemia; COLO 205 colon; KM20L2 colon; LXFL 529 NSCLC.
Assay in all cases: NCI anticancer screen, dose series, 48 h

The values below come from PubChem BioAssay (NCI).

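Briefly, cells in 96-well plates were exposed to five compound concentrations for 48 h, and endpoints were estimated by linear interpolation. GI50 is the concentration that inhibits growth by half.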 Certain results were filed several times, with different values. The other results are left out here. The source may hold further records. For some of these results: The tests behind the records often covered other concentration ranges, which the source does not state; some values may only mark the edge of a range. For some of these results: The records of an entry are repeated measurements in other runs, samples, wells, individuals or studies. Marks in square brackets tell the records apart. Letters count within one entry.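 TGI marks complete inhibition of growth.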

Consider `CC1(C)[C@H](O)[C@H](F)C[C@@]2(C)Oc3ccc(C(=O)Nc4ccc5c(c4)NC(=O)C54CCN(CCCCC#N)CC4)cc3C[C@H]12`, for which the GI50 is 1.22 µM and 46.6 nM with A549 NSCLC; 1.17 µM and 112 nM with DU-145 prostate; 1.43 µM and 83.7 nM in the assay on SK-MEL-5 melanoma. Moreover, the TGI was 10.3 nM and 1.28 µM in the assay on RPMI-8226 leukemia; 72.1 nM and 1.43 µM with RXF 393 renal.
For the compound `O=c1[nH]c2ccccc2n1C1CCN(CCCC(c2ccc(F)cc2)c2ccc(F)cc2)CC1`, the TGI in the assay on MDA-MB-231 breast is 27.2 µM [sample A, mean of 2 tests] and 2.69 µM [sample B, 1 test].
For the compound `N#CCNC(=O)c1ccc(-c2ccnc(Nc3ccc(N4CCOCC4)cc3)n2)cc1`, the GI50 in the assay with K-562 leukemia is 19.7 nM [sample A, 1 test] and 5.53 µM [sample B, mean of 2 tests].
In the case of `C/C(=N\NC(=S)N1CCN(c2ccccn2)CC1)c1ncccn1`, the TGI with COLO 205 colon is 156 nM and 16.6 µM; with KM20L2 colon, 139 nM and 30.6 µM; in the assay with LXFL 529 NSCLC, 897 nM and 12.2 µM.
